From the supplement of paper PMC12217912
Some of the results follow. The full chains were built here from the parent and the listed change. Inactive controls read about 0.05.

B1: TEV protease; numbered along this chain (parent)
chain: MGESLFKGPRDYNPISSSICHLTNESDGHTTSLYGIGFGPFIITNKHLFRRNNGTLVVQSLHGVFKVKDTTTLQQHLVDGRDMIIIRMPKDFPPFPQKLKFREPQREERICLVTTNFQTKSMSSMVSDTSCTFPSGDGIFWKHWIQTKDGQCGSPLVSTRDGFIVGIHSASNFTNTNNYFTSVPKNFMELLTNQEAQQWVSGWRLNADSVLWGGHKVFMVKPEEPFQPVKEATQL

Variants of: B1
Experiment: raw area under fraction-flipped curve 0-4 h after induction (AUC4h, not background-subtracted), DNA-recorder readout of cleavage of the substrate (dimensionless); higher = more cleavage of the substrate by the protease variant
Details: temperature: 34 °C; time window: 0-4 h after rhamnose induction
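Also: Bxb1 expression induced with 0.2% (w/v) L-rhamnose at OD600 near 0.5, cultures sampled hourly, flipped fraction per protease–substrate barcode pair counted by paired-end Illumina sequencing.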

## MGESLFKGPRDYNPISSSICHLTNESDGHTTSLYGIGFGPFIITNKHLFRRNNGTLVVQSLHGVFKVKDTTTLQQHLVDGRDMIIIRMPKDFPPFPQKLKFREPQREERICLVTTNFQTKSMSSMVSDTSCTFPSGDGIFWKHWIQTKDGQCGSPLVSTRDGFIVGIHSAGNFTNTNNYFTSVPKNFMELLTNQEAQQWVSGWRLNADSVLWGGHKVFMVKPEEPFQPVKEATQL [S171G]
  area with substrate ENLYFQA: 0.0889
  area with substrate ENLYFQC: 0.0719
  area with substrate ENLYFQG: 0.0537
  area with substrate ENLYFQL: 0.0611
  area with substrate ENLYFQN: 0.0597
  area with substrate ENLYFQR: 0.0681
  area with substrate ENLYFQS: 0.0682
  area with substrate ENLYFQW: 0.0423

## MGESLFKGPRDYNPISSSICHLTNESDGHTTSLYGIGFGPFIITNKHLFRRNNGTLVVQSLHGVFKVKDTTTLQQHLVDGRDMIIIRMPKDFPPFPQKLKFREPQREERICLVTTNFQTKSMSSMVSDTSCTFPSGDGIFWKHWIQTKDGQCGSPLVSTRDGFIVGIHSASNFTNTNNYFTSVPKNFMELLTNQEAQQWVSGWRLNADSVLWAGHKVFMVKPEEPFQPVKEATQL [G213A]
  area with substrate ENLYFQA: 0.0742
  area with substrate ENLYFQC: 0.0917
  area with substrate ENLYFQE: 0.0355
  area with substrate ENLYFQF: 0.0449
  area with substrate ENLYFQG: 0.0731
  area with substrate ENLYFQH: 0.0588
  area with substrate ENLYFQI: 0.0532
  area with substrate ENLYFQK: 0.0576
  area with substrate ENLYFQL: 0.0623
  area with substrate ENLYFQM: 0.0653
  area with substrate ENLYFQN: 0.0666
  area with substrate ENLYFQP: 0.0679
  area with substrate ENLYFQQ: 0.0389
  area with substrate ENLYFQR: 0.0628
  area with substrate ENLYFQS: 0.0815
  area with substrate ENLYFQT: 0.0459
  area with substrate ENLYFQV: 0.0587
  area with substrate ENLYFQW: 0.0578
  area with substrate ENLYFQY: 0.0574

## MGESLFKGPRDYNPISSSICHLTNESDGHTTSLYGIGFGPFIITNKHLFRRNNGTLVVQSLHGVFKVKDTTTLQQHLVLGRDMIIIRMPKDFPPFPQKLKFREPQREERICLVTTNFQTKSMSSMVSDTSCTFPSGDGIFWKHWIQTKDGQCGSPLVSTRDGFIVGIHSASNFTNTNNYFTSVPKNFMELLTNQEAQQWVSGWRLNADSVLWGGHKVFMVKPEEPFQPVKEATQL [D79L]
  area with substrate ENLYFQA: 0.0983
  area with substrate ENLYFQC: 0.109
  area with substrate ENLYFQD: 0.0644
  area with substrate ENLYFQE: 0.0574
  area with substrate ENLYFQG: 0.086
  area with substrate ENLYFQH: 0.0628
  area with substrate ENLYFQK: 0.0721
  area with substrate ENLYFQL: 0.0528
  area with substrate ENLYFQM: 0.0601
  area with substrate ENLYFQR: 0.0654
  area with substrate ENLYFQS: 0.0938
  area with substrate ENLYFQW: 0.047
  area with substrate ENLYFQY: 0.0706

## MGESLFKGPRDYNPISSSICHLTNESDGHTTSLYGIGFGPFIITNKHLFRRNNGTLVVQSLHGVFKVKDTTTLQQHLVDGRDMIIIRMPKDFPPFPQKLKFREPQREERICLVTTNFQTKSMSSMVSDTSCTFPSGDGIFWKHWIQTKDGQCGSPLVSTRDGFIVGIHSASNFTNTNNYFTSVPKNFMELLTNQEAQQWVSGWRLNADSVLWGGHKVFMVKPEEPFQPVKEASQL [T233S]
  area with substrate ENLYFQA: 0.118
  area with substrate ENLYFQC: 0.117
  area with substrate ENLYFQD: 0.0956
  area with substrate ENLYFQF: 0.0685
  area with substrate ENLYFQK: 0.0627
  area with substrate ENLYFQL: 0.0716
  area with substrate ENLYFQM: 0.0956
  area with substrate ENLYFQQ: 0.0816
  area with substrate ENLYFQS: 0.103
  area with substrate ENLYFQV: 0.0675
  area with substrate ENLYFQY: 0.0873

## MGESLFKGPRDYNPISSSICHLTNESDGHTTSLYGIGFGPFIITNKHLFRRNNGTLVVQSLHGVFKVKDTTTLQQHLVDGRDMIIIRMPKDFPPFPQKLKFREPQREERICLVTTNFQTKSMSSMVSDTSCTFPSGDGIFWKHWIQTKDGQCGSPLVSTRDGFIVGIHSASNFTNTNNYFTSVPKNFMELLTNQEAQQWVSGWELNADSVLWGGHKVFMVKPEEPFQPVKEATQL [R204E]
  area with substrate ENLYFQA: 0.124
  area with substrate ENLYFQC: 0.133
  area with substrate ENLYFQD: 0.0735
  area with substrate ENLYFQI: 0.0613
  area with substrate ENLYFQK: 0.0731
  area with substrate ENLYFQL: 0.0581
  area with substrate ENLYFQM: 0.0873
  area with substrate ENLYFQN: 0.1
  area with substrate ENLYFQP: 0.0834
  area with substrate ENLYFQQ: 0.0781
  area with substrate ENLYFQS: 0.119
  area with substrate ENLYFQV: 0.0648
  area with substrate ENLYFQW: 0.0524
  area with substrate ENLYFQY: 0.0896

## MGESLFKGPRDYNPISSSICHLTNESDGHTTSLYGIGFGPFIITNKHLFRRNNGTLVVQSAHGVFKVKDTTTLQQHLVDGRDMIIIRMPKDFPPFPQKLKFREPQREERICLVTTNFQTKSMSSMVSDTSCTFPSGDGIFWKHWIQTKDGQCGSPLVSTRDGFIVGIHSASNFTNTNNYFTSVPKNFMELLTNQEAQQWVSGWRLNADSVLWGGHKVFMVKPEEPFQPVKEATQL [L61A]
  area with substrate ENLYFQA: 0.0859
  area with substrate ENLYFQC: 0.104
  area with substrate ENLYFQD: 0.0736
  area with substrate ENLYFQG: 0.0949
  area with substrate ENLYFQI: 0.0539
  area with substrate ENLYFQL: 0.0592
  area with substrate ENLYFQN: 0.111
  area with substrate ENLYFQP: 0.0748
  area with substrate ENLYFQQ: 0.0451
  area with substrate ENLYFQR: 0.0722
  area with substrate ENLYFQS: 0.0959
  area with substrate ENLYFQT: 0.0658

## MGESLFKGPRDYNPISSSICHLTNESDGHTTSLYGIGFGPFIITNKHLFRRNNGTLVVQSLHGVFKVKDTTTLQQHLVDGRDMIIIRMPKDFPPFPQKLKFREPQREERICLVTTNFQTKSMSSMVSDTSCTFPSGDGIFWKHWCQTKDGQCGSPLVSTRDGFIVGIHSASNFTNTNNYFTSVPKNFMELLTNQEAQQWVSGWRLNADSVLWGGHKVFMVKPEEPFQPVKEATQL [I145C]
  area with substrate ENLYFQA: 0.142
  area with substrate ENLYFQG: 0.113
  area with substrate ENLYFQH: 0.125
  area with substrate ENLYFQI: 0.0628
  area with substrate ENLYFQK: 0.0546
  area with substrate ENLYFQM: 0.109
  area with substrate ENLYFQN: 0.104
  area with substrate ENLYFQR: 0.0587
  area with substrate ENLYFQS: 0.137
  area with substrate ENLYFQV: 0.0688
  area with substrate ENLYFQY: 0.0882

## MGESLFKGPRDPNPISSSICHLTNESDGHTTSLYGIGFGPFIITNKHLFRRNNGTLVVQSLHGVFKVKDTTTLQQHLVDGRDMIIIRMPKDFPPFPQKLKFREPQREERICLVTTNFQTKSMSSMVSDTSCTFPSGDGIFWKHWIQTKDGQCGSPLVSTRDGFIVGIHSASNFTNTNNYFTSVPKNFMELLTNQEAQQWVSGWRLNADSVLWGGHKVFMVKPEEPFQPVKEATQL [Y12P]
  area with substrate ENLYFQA: 0.104
  area with substrate ENLYFQC: 0.118
  area with substrate ENLYFQD: 0.071
  area with substrate ENLYFQF: 0.0736
  area with substrate ENLYFQG: 0.0735
  area with substrate ENLYFQH: 0.0873
  area with substrate ENLYFQI: 0.0559
  area with substrate ENLYFQK: 0.0596
  area with substrate ENLYFQL: 0.059
  area with substrate ENLYFQM: 0.107
  area with substrate ENLYFQP: 0.0646
  area with substrate ENLYFQQ: 0.0698
  area with substrate ENLYFQR: 0.0551
  area with substrate ENLYFQS: 0.0967
  area with substrate ENLYFQT: 0.0643
  area with substrate ENLYFQV: 0.0692
  area with substrate ENLYFQW: 0.066
  area with substrate ENLYFQY: 0.0792

## MGESLFKGPRDYNPISSSICHLTNESDGHTTSLYGIGFGPFIITNKHLFRRNNGTLVVQSLHGVFKVKDTTTLQQHLVDGRDMIFIRMPKDFPPFPQKLKFREPQREERICLVTTNFQTKSMSSMVSDTSCTFPSGDGIFWKHWIQTKDGQCGSPLVSTRDGFIVGIHSASNFTNTNNYFTSVPKNFMELLTNQEAQQWVSGWRLNADSVLWGGHKVFMVKPEEPFQPVKEATQL [I85F]
  area with substrate ENLYFQA: 0.075
  area with substrate ENLYFQD: 0.0676
  area with substrate ENLYFQF: 0.0559
  area with substrate ENLYFQG: 0.0718
  area with substrate ENLYFQH: 0.0615
  area with substrate ENLYFQI: 0.0609
  area with substrate ENLYFQK: 0.0604
  area with substrate ENLYFQL: 0.06
  area with substrate ENLYFQN: 0.0875
  area with substrate ENLYFQP: 0.0472
  area with substrate ENLYFQQ: 0.0513
  area with substrate ENLYFQR: 0.0596
  area with substrate ENLYFQS: 0.0966
  area with substrate ENLYFQT: 0.0848
  area with substrate ENLYFQV: 0.0559
  area with substrate ENLYFQW: 0.0667
